Test results as given in the supplement of paper PMC9151546.
Where a name gives a salt, the structure may show the parent alone. Single values are uncertain, as repeats are few or missing.

Legend:
[1] = system: CHO-K1; assay: micronucleus frequency (% of nucleated events); higher = more micronuclei (genotoxic)
[2] = system: CHO-K1; assay: hypodiploid nuclei frequency (% of nucleated events); higher = more hypodiploid events (aneugenic)
Protocol: (§1)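 Flow-cytometric in vitro micronucleus assay (Litron MicroFlow) in CHO-K1 cells in 96-well plates, 19 concentrations (4.5-200 µM, n=1 per concentration). Without S9, cells were exposed for 24 h and sampled at 48 h. With Aroclor 1254-induced rat liver S9, cells were exposed for 3-4 h and sampled at 27-28 h. Read-outs are %MN and %hypodiploid nuclei relative to nucleated events, and relative survival as the nuclei-to-bead ratio versus the 1% DMSO vehicle control (x100).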

[3] = system: CHO-K1; assay: relative survival (nuclei to bead ratio vs DMSO control) (% of vehicle control); higher = more surviving cells
Protocol: as §1
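Wherever hypodiploid nuclei frequency (% of nucleated events) is given: hypodiploid nuclei gated on a flow cytometer with 488 nm excitation after SYTOX Green staining, cultures at 37 °C, positive controls vinblastine without S9 and cyclophosphamide with S9.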
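Wherever micronucleus frequency (% of nucleated events) is given: cells lysed with nuclei stained by SYTOX Green, then micronucleus-gated events counted against nucleated events by flow cytometry with 488 nm excitation.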
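Wherever relative survival (nuclei to bead ratio vs DMSO control) is given: Lysed-cell nuclei stained with SYTOX Green and counted against counting beads by flow cytometry at 488 nm excitation, with vinblastine (no S9) and cyclophosphamide (plus S9) as positive controls.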

Nc1ccn([C@@H]2O[C@H](CO)[C@@H](O)[C@@H]2O)c(=O)n1 [Cytarabine hydrochloride]
Details | hypodiploid nuclei frequency, [2] [%] | micronucleus frequency, [1] [%] | relative survival, [3]
concentration: 4.5 (µM), S9 metabolic activation: with S9, exposure time: 3-4 hours | 0.18 | 0.74 | 112
concentration: 4.5 (µM), S9 metabolic activation: without S9, exposure time: 24 hours | 0.68 | 2.7 | 58.3
concentration: 5.63 (µM), S9 metabolic activation: with S9, exposure time: 3-4 hours | 0.16 | 1.06 | 111
concentration: 5.63 (µM), S9 metabolic activation: without S9, exposure time: 24 hours | 0.84 | 3 | 55.1
concentration: 7.04 (µM), S9 metabolic activation: with S9, exposure time: 3-4 hours | 0.26 | 0.94 | 109
concentration: 7.04 (µM), S9 metabolic activation: without S9, exposure time: 24 hours | 0.3 | 1.76 | 56.8
concentration: 8.8 (µM), S9 metabolic activation: with S9, exposure time: 3-4 hours | 0.16 | 1.8 | 94.2
concentration: 8.8 (µM), S9 metabolic activation: without S9, exposure time: 24 hours | 0.24 | 1.54 | 46.7
concentration: 11 (µM), S9 metabolic activation: with S9, exposure time: 3-4 hours | 0.24 | 2.34 | 115
concentration: 11 (µM), S9 metabolic activation: without S9, exposure time: 24 hours | 0.2 | 1.92 | 50.7
concentration: 13.7 (µM), S9 metabolic activation: with S9, exposure time: 3-4 hours | 0.24 | 1.72 | 103
concentration: 13.7 (µM), S9 metabolic activation: without S9, exposure time: 24 hours | 0.38 | 2.06 | 60.5
concentration: 17.2 (µM), S9 metabolic activation: with S9, exposure time: 3-4 hours | 0.18 | 1.96 | 117
concentration: 17.2 (µM), S9 metabolic activation: without S9, exposure time: 24 hours | 0.26 | 1.8 | 53.4
concentration: 21.5 (µM), S9 metabolic activation: with S9, exposure time: 3-4 hours | 0.22 | 3.5 | 94.8
concentration: 21.5 (µM), S9 metabolic activation: without S9, exposure time: 24 hours | 0.28 | 2.04 | 45.8
concentration: 26.8 (µM), S9 metabolic activation: with S9, exposure time: 3-4 hours | 0.34 | 3.32 | 102
concentration: 26.8 (µM), S9 metabolic activation: without S9, exposure time: 24 hours | 0.37 | 1.93 | 42.4
concentration: 33.6 (µM), S9 metabolic activation: with S9, exposure time: 3-4 hours | 0.4 | 3.8 | 92.9
concentration: 33.6 (µM), S9 metabolic activation: without S9, exposure time: 24 hours | – | – | 37.5
concentration: 41.9 (µM), S9 metabolic activation: with S9, exposure time: 3-4 hours | 0.44 | 3.08 | 77.6
concentration: 41.9 (µM), S9 metabolic activation: without S9, exposure time: 24 hours | 0.34 | 2.11 | 42.3
concentration: 52.4 (µM), S9 metabolic activation: with S9, exposure time: 3-4 hours | 0.62 | 4.3 | 74.3
concentration: 52.4 (µM), S9 metabolic activation: without S9, exposure time: 24 hours | 0.38 | 1.56 | 41
concentration: 65.5 (µM), S9 metabolic activation: with S9, exposure time: 3-4 hours | 0.54 | 3.98 | 70.3
concentration: 65.5 (µM), S9 metabolic activation: without S9, exposure time: 24 hours | 0.35 | 1.84 | 46.6
concentration: 81.9 (µM), S9 metabolic activation: with S9, exposure time: 3-4 hours | 0.56 | 4.82 | 69.6
concentration: 81.9 (µM), S9 metabolic activation: without S9, exposure time: 24 hours | 0.42 | 1.32 | 46.6
concentration: 102 (µM), S9 metabolic activation: with S9, exposure time: 3-4 hours | 0.48 | 5.22 | 61.6
concentration: 102 (µM), S9 metabolic activation: without S9, exposure time: 24 hours | – | – | 32.6
concentration: 128 (µM), S9 metabolic activation: with S9, exposure time: 3-4 hours | 0.48 | 4.62 | 61.3
concentration: 128 (µM), S9 metabolic activation: without S9, exposure time: 24 hours | 0.38 | 1.68 | 45.9
concentration: 160 (µM), S9 metabolic activation: with S9, exposure time: 3-4 hours | 0.54 | 6.5 | 69.3
concentration: 160 (µM), S9 metabolic activation: without S9, exposure time: 24 hours | 0.24 | 1.9 | 44.4
concentration: 200 (µM), S9 metabolic activation: with S9, exposure time: 3-4 hours | 0.58 | 6.04 | 57.6
concentration: 200 (µM), S9 metabolic activation: without S9, exposure time: 24 hours | 0.08 | 1.66 | 42.4

CCCCCCCCCC [Decane]
Details | hypodiploid nuclei frequency, [2] [%] | micronucleus frequency, [1] [%] | relative survival, [3]
concentration: 4.5 (µM), S9 metabolic activation: with S9, exposure time: 3-4 hours | 0.2 | 1.24 | 97.2
concentration: 4.5 (µM), S9 metabolic activation: without S9, exposure time: 24 hours | 0.34 | 1.02 | 92.2
concentration: 5.63 (µM), S9 metabolic activation: with S9, exposure time: 3-4 hours | 0.2 | 1.16 | 114
concentration: 5.63 (µM), S9 metabolic activation: without S9, exposure time: 24 hours | 0.64 | 1.26 | 77.8
concentration: 7.04 (µM), S9 metabolic activation: with S9, exposure time: 3-4 hours | 0.3 | 1.8 | 103
concentration: 7.04 (µM), S9 metabolic activation: without S9, exposure time: 24 hours | 0.72 | 1.78 | 91.1
concentration: 8.8 (µM), S9 metabolic activation: with S9, exposure time: 3-4 hours | 0.3 | 1.38 | 91.4
concentration: 8.8 (µM), S9 metabolic activation: without S9, exposure time: 24 hours | 0.5 | 1.2 | 100
concentration: 11 (µM), S9 metabolic activation: with S9, exposure time: 3-4 hours | 0.28 | 1.8 | 124
concentration: 11 (µM), S9 metabolic activation: without S9, exposure time: 24 hours | 0.52 | 1.44 | 83.9
concentration: 13.7 (µM), S9 metabolic activation: with S9, exposure time: 3-4 hours | 0.16 | 1.46 | 103
concentration: 13.7 (µM), S9 metabolic activation: without S9, exposure time: 24 hours | 0.38 | 1 | 80.8
concentration: 17.2 (µM), S9 metabolic activation: with S9, exposure time: 3-4 hours | 0.38 | 1.78 | 86
concentration: 17.2 (µM), S9 metabolic activation: without S9, exposure time: 24 hours | 0.44 | 1.42 | 98.6
concentration: 21.5 (µM), S9 metabolic activation: with S9, exposure time: 3-4 hours | 0.36 | 1.46 | 92.6
concentration: 21.5 (µM), S9 metabolic activation: without S9, exposure time: 24 hours | 0.48 | 1.32 | 82
concentration: 26.8 (µM), S9 metabolic activation: with S9, exposure time: 3-4 hours | 0.32 | 2.3 | 104
concentration: 26.8 (µM), S9 metabolic activation: without S9, exposure time: 24 hours | 0.5 | 1.1 | 97.7
concentration: 33.6 (µM), S9 metabolic activation: with S9, exposure time: 3-4 hours | 0.54 | 1.7 | 124
concentration: 33.6 (µM), S9 metabolic activation: without S9, exposure time: 24 hours | 0.32 | 1 | 73.3
concentration: 41.9 (µM), S9 metabolic activation: with S9, exposure time: 3-4 hours | 0.18 | 1.24 | 101
concentration: 41.9 (µM), S9 metabolic activation: without S9, exposure time: 24 hours | 0.34 | 1.22 | 97.7
concentration: 52.4 (µM), S9 metabolic activation: with S9, exposure time: 3-4 hours | 0.2 | 1.54 | 105
concentration: 52.4 (µM), S9 metabolic activation: without S9, exposure time: 24 hours | 0.34 | 0.94 | 74.6
concentration: 65.5 (µM), S9 metabolic activation: with S9, exposure time: 3-4 hours | 0.2 | 1.46 | 95.7
concentration: 65.5 (µM), S9 metabolic activation: without S9, exposure time: 24 hours | 0.44 | 1.44 | 87
concentration: 81.9 (µM), S9 metabolic activation: with S9, exposure time: 3-4 hours | 0.2 | 1.36 | 107
concentration: 81.9 (µM), S9 metabolic activation: without S9, exposure time: 24 hours | 0.46 | 1.76 | 75.6
concentration: 102 (µM), S9 metabolic activation: with S9, exposure time: 3-4 hours | 0.3 | 1.62 | 89.3
concentration: 102 (µM), S9 metabolic activation: without S9, exposure time: 24 hours | 0.72 | 1.42 | 66.7
concentration: 128 (µM), S9 metabolic activation: with S9, exposure time: 3-4 hours | 0.32 | 1.48 | 83
concentration: 128 (µM), S9 metabolic activation: without S9, exposure time: 24 hours | 0.6 | 1.16 | 99.5
concentration: 160 (µM), S9 metabolic activation: with S9, exposure time: 3-4 hours | 0.2 | 1.28 | 105
concentration: 160 (µM), S9 metabolic activation: without S9, exposure time: 24 hours | 0.74 | 1.92 | 86.3
concentration: 200 (µM), S9 metabolic activation: with S9, exposure time: 3-4 hours | 0.28 | 2 | 102
concentration: 200 (µM), S9 metabolic activation: without S9, exposure time: 24 hours | 0.9 | 1.44 | 86.6
